Source: PubChem BioAssay (Tox21)
Where “and” joins values, the source holds several entries; their conditions need not be identical. Equal values may be shown once. Inconclusive results, whose numbers are uncertain, are shown with a selection of clear calls. For some assays here: A potency beside an inconclusive call is a rough fit, not a confirmed value. Calls of active or inactive are those of the source. Unless noted, the call rests on the fitted dose curve; in most records, active means well fitted curve in the direction sought with a large enough effect in the repeat runs; inconclusive means weak or mixed curves; inactive means no such curve, though single readings can be large; an effect the other way counts as inactive or inconclusive.

Columns and labels:
[1] = qHTS assay for small molecule agonists of the antioxidant response element (ARE) signaling pathway (AID 743202; active means well fitted activation curve with a large enough effect in the signal ratio in the repeat runs, not every such curve was filed as active; inconclusive means weak or mixed curves, or effect the other way; inactive means no such curve, though single readings can be large or run the other way; the % refers to the signal ratio; further: potency means the concentration at half of the fitted maximal effect); conditions: HepG2 ARE-bla reporter, beta-lactamase FRET, 16 h; activation: at 73.3 µM (top of the series) unless noted
Method in brief: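 Read-out: LiveBLAzer B/G FRET substrate fluorescence after 2 h at room temperature, following 16 h compound treatment at 37 C of HepG2 cells carrying an ARE-driven beta-lactamase reporter.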

[2] = biological target: Peroxisome proliferator-activated receptor delta (Homo sapiens) (UniProt Q03181); assay: qHTS assay to identify small molecule agonists of the peroxisome proliferator-activated receptor delta (PPARd) signaling pathway (AID 743212; calls by dose curve; further: on the % scale 0 is the no-effect control and ±100 the full control effect); conditions: HEK293H PPARd-UAS-bla, beta-lactamase FRET ratio, 17 h; activation: at 62.6 µM (top of the series) unless noted
Chain of UniProt Q03181 (Q03181 whole entry, looked up): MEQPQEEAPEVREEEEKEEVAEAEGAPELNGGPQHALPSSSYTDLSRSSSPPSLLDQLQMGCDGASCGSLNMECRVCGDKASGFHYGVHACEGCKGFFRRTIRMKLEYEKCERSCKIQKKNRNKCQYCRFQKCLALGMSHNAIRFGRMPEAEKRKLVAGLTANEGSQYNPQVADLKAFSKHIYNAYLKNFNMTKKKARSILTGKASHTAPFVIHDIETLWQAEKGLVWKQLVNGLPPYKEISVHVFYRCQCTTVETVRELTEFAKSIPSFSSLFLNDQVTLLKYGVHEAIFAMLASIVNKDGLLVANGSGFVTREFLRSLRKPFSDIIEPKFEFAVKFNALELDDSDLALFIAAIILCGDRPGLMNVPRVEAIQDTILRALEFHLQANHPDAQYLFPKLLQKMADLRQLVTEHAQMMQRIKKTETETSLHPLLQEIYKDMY
Method in brief: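 GeneBLAzer PPARd UAS-bla HEK293H cells (beta-lactamase reporter under UAS control), plated and rested 5 h at 37 C, then exposed to compounds in DMSO at 37 C; LiveBLAzer B/G FRET substrate added, 2 h room temperature, fluorescence read.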

[3] = qHTS assay to identify small molecule antagonists of the peroxisome proliferator-activated receptor delta (PPARd) signaling pathway - cell viability counter screen (AID 743213); conditions: PPARd-bla HEK293H viability, CellTiter-Glo luminescence, 17 h; viability change, negative = cytotoxic: at 62 µM (top of the series) unless noted; further: potency means the concentration at half of the fitted maximal effect; nearly all actives have a fitted effect of over 50% in size
Method in brief: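 CellTiter-Glo was added to PPARd-bla HEK293H wells following 17 h compound treatment in the presence of 300 nM L165041. Luminescence was recorded after 30 min at room temperature.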

[4] = qHTS assay to identify small molecule agonists of the farnesoid-X-receptor (FXR) signaling pathway - cell viability counter screen (AID 743218); conditions: FXR-bla HEK293T viability, CellTiter-Glo luminescence, 16 h; viability change, negative = cytotoxic: at 62.6 µM (top of the series) unless noted; further: potency means the concentration at half of the fitted maximal effect; nearly all actives have a fitted effect of over 45% in size
Method in brief: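 FXR-UAS-bla HEK 293T cells exposed to compounds for 16 h at 37C. Cytotoxicity read in the same wells by CellTiter-Glo luminescence after 30 min at room temperature, following the beta-lactamase FRET read.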

[5] = biological target: Vitamin D3 receptor (Homo sapiens) (UniProt P11473); assay: qHTS assay to identify small molecule antagonists of the vitamin D receptor (VDR) signaling pathway (AID 743223; active means well fitted inhibition curve with a large enough effect in the signal ratio in the repeat runs, not every such curve was filed as active; inconclusive means weak or mixed curves, or effect the other way; inactive means no such curve, though single readings can be large or run the other way; the % refers to the signal ratio; further: potency means the concentration at half of the fitted maximal effect); conditions: VDR-UAS-bla HEK293T, beta-lactamase FRET ratio, 16 h; activity change, negative = inhibition: at 61 µM (top of the series) unless noted
Chain of UniProt P11473 (P11473 whole entry, looked up): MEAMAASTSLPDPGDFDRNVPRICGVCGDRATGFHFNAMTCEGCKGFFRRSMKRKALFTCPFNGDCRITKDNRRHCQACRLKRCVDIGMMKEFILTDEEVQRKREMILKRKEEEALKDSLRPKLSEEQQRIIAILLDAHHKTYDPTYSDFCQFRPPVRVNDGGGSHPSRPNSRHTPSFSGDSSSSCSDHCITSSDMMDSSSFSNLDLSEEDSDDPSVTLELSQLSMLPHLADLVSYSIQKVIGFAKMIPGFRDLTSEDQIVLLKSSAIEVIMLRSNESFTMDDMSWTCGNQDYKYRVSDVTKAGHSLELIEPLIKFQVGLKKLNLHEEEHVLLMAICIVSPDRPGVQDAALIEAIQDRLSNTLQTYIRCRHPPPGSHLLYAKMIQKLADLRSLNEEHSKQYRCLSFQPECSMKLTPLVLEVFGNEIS
Method in brief: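 VDR-bla cells were plated, incubated 4 h at 37C, then given compound and 1alpha,25-dihydroxyvitamin D3 (3 nM final). After 16 h at 37C, LiveBLAzer B/G FRET substrate was added for 2 h at room temperature and fluorescence read.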

[6] = qHTS assay to identify small molecule agonists of the NFkB signaling pathway - cell viability counter screen (AID 1159515; calls by dose curve; further: nearly all actives have a fitted effect of over 55% in size; further: potency means the concentration at half of the fitted maximal effect)
Method in brief: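 NFkB-bla ME-180 cells, 2,000/well, plated overnight at 37 C; compound added for 5 hr at 37 C. Viability read in the same wells as the bla reporter, by CellTiter-Glo luminescence after 30 min at room temperature.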

[7] = qHTS assay for small molecule activators of the heat shock response signaling pathway (AID 743210; active means well fitted activation curve with a large enough effect in the signal ratio in the repeat runs, with a control signal flat, not every such curve was filed as active; inconclusive means weak or mixed curves; the % refers to the signal ratio; further: potency means the concentration at half of the fitted maximal effect); conditions: HeLa HSE-bla reporter, beta-lactamase ratio, 5 h; activation: at 62.6 µM (top of the series)
Method in brief: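 HSE-bla HeLa cells (beta-lactamase reporter under heat shock response elements) were exposed to compounds for 5 h at 37 C, then loaded with LiveBLAzer B/G FRET substrate for 2.5 h at room temperature before fluorescence reading.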

[8] = biological target: Peroxisome proliferator-activated receptor delta (Homo sapiens) (UniProt Q03181); assay: qHTS assay to identify small molecule antagonists of the peroxisome proliferator-activated receptor delta (PPARd) signaling pathway (AID 743215; active means well fitted inhibition curve with a large enough effect in the signal ratio in the repeat runs, not every such curve was filed as active; inconclusive means weak or mixed curves, or effect the other way; inactive means no such curve, though single readings can be large or run the other way; the % refers to the signal ratio;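 further: cells stimulated with agonist L165041 at 300 nM final during compound exposure; on the % scale 0 is the no-effect control and ±100 the full control effect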); conditions: HEK293H PPARd-UAS-bla, beta-lactamase FRET ratio, antagonist, 17 h; ratio activity, negative = inhibition: at 62 µM (top of the series) unless noted
Method in brief: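 PPARd-bla HEK293H cells (UAS-bla reporter) preincubated 5 h, then given compound plus 300 nM final L165041 agonist for 17 h at 37 C. Beta-lactamase activity read by LiveBLAzer B/G FRET substrate fluorescence after 2 h at room temperature.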

[9] = qHTS assay to identify small molecule agonists of the vitamin D receptor (VDR) signaling pathway - cell viability counter screen (AID 743224); further: potency means the concentration at half of the fitted maximal effect; nearly all actives have a fitted effect of over 50% in size
Method in brief: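 VDR-bla cells, 4 h after plating, exposed to compounds for 16 h at 37C; viability then read in the same wells as CellTiter-Glo luminescence after 30 min at room temperature, following the bla FRET read.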

[10] = qHTS assay to identify small molecule antagonists of the vitamin D receptor (VDR) signaling pathway - cell viability counter screen (AID 743225); conditions: VDR-bla HEK293T viability, CellTiter-Glo luminescence, 16 h; viability change, negative = cytotoxic: at 61 µM (top of the series) unless noted; further: potency means the concentration at half of the fitted maximal effect; nearly all actives have a fitted effect of over 50% in size
Method in brief: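 VDR-bla HEK 293T cells, 4 h pre-incubation at 37C, then compound plus 1-alpha,25-dihydroxyvitamin D3 (3 nM final) for 16 h. After the beta-lactamase FRET read, CellTiter-Glo was added to the same wells; luminescence after 30 min at room temperature.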

[11] = qHTS assay to identify small molecule agonists of the peroxisome proliferator-activated receptor delta (PPARd) signaling pathway - cell viability counter screen (AID 743211); conditions: PPARd-bla HEK293H viability, CellTiter-Glo luminescence, 17 h; activity change, negative = cytotoxicity: at 62.6 µM (top of the series) unless noted; further: potency means the concentration at half of the fitted maximal effect; nearly all actives have a fitted effect of over 55% in size
Method in brief: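 PPARd-bla HEK293H cells (UAS-beta-lactamase reporter) were treated with compounds for 17 h at 37 C. Viability was then read in the same wells by CellTiter-Glo luminescence after 30 min at room temperature.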

[12] = biological target: Bile acid receptor (Homo sapiens) (UniProt Q96RI1); assay: qHTS assay to identify small molecule antagonists of the farnesoid-X-receptor (FXR) signaling pathway (AID 743217; active means well fitted inhibition curve with a large enough effect in the signal ratio in the repeat runs, not every such curve was filed as active; inconclusive means weak or mixed curves, or effect the other way; inactive means no such curve, though single readings can be large or run the other way; the % refers to the signal ratio; further: on the % scale 0 is the no-effect control and ±100 the full control effect); conditions: HEK293T FXR-UAS-bla, beta-lactamase ratio, CDCA-stimulated, 16 h; activity change, negative = inhibition: at 62.6 µM (top of the series) unless noted
Chain of UniProt Q96RI1 (Q96RI1 whole entry, looked up): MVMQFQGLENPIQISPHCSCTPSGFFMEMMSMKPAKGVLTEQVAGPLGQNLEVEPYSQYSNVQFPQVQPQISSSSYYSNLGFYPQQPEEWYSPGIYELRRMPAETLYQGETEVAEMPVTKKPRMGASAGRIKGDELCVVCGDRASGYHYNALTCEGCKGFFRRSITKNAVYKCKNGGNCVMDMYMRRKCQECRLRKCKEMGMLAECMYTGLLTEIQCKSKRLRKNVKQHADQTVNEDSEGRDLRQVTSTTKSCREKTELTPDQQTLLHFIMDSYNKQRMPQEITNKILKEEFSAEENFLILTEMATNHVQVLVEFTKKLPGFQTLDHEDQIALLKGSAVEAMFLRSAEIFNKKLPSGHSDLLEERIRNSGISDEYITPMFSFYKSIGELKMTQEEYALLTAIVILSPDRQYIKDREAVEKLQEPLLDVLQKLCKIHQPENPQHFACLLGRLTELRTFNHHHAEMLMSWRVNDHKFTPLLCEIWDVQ
Method in brief: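 FXR-UAS-bla HEK 293T cells (beta-lactamase reporter) given compound plus chenodeoxycholic acid (50 uM final), 16 h at 37C. LiveBLAzer B/G FRET substrate added for 2 h at room temperature; fluorescence read.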

[13] = biological target: Bile acid receptor (Homo sapiens) (UniProt Q96RI1); assay: qHTS assay to identify small molecule agonists of the farnesoid-X-receptor (FXR) signaling pathway (AID 743220; active means well fitted activation curve with a large enough effect in the signal ratio in the repeat runs, not every such curve was filed as active; inconclusive means weak or mixed curves, or effect the other way; the % refers to the signal ratio; further: on the % scale 0 is the no-effect control and ±100 the full control effect); conditions: HEK293T FXR-UAS-bla, beta-lactamase FRET ratio, 16 h; activation: at 62.6 µM (top of the series) unless noted
Method in brief: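 Beta-lactamase reporter under UAS control in GeneBLAzer FXR HEK 293T cells (5000/well) measured with LiveBLAzer FRET substrate after 2 h at room temperature. Compound exposure lasted 16 h at 37C.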

[14] = qHTS assay to identify small molecule antagonists of the peroxisome proliferator-activated receptor gamma (PPARg) signaling pathway - cell viability counter screen (AID 743194); conditions: PPARg-bla HEK293H viability, CellTiter-Glo luminescence, 17 h; Potency: co-treated with 50 nM rosiglitazone unless noted; activity change, negative = cytotoxicity: at 62.6 µM (top of the series), co-treated with 50 nM rosiglitazone unless noted; further: nearly all actives have a fitted effect of over 55% in size; further: potency means the concentration at half of the fitted maximal effect
Method in brief: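 PPARg-UAS-bla HEK293H cells were plated, rested 5 h at 37 C, then treated with compounds plus rosiglitazone (50 nM final) for 17 h at 37 C; viability was then read by CellTiter-Glo luminescence after 30 min at room temperature.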

[15] = biological target: Peroxisome proliferator-activated receptor gamma (Homo sapiens) (UniProt P37231); assay: qHTS assay to identify small molecule antagonists of the peroxisome proliferator-activated receptor gamma (PPARg) signaling pathway (AID 743191; calls by dose curve; further: on the % scale 0 is the no-effect control and ±100 the full control effect; nearly all actives have a fitted effect of over 30% in size); conditions: HEK293H PPARg-UAS-bla, beta-lactamase ratio, antagonist, 17 h
Chain of UniProt P37231 (P37231 whole entry, looked up): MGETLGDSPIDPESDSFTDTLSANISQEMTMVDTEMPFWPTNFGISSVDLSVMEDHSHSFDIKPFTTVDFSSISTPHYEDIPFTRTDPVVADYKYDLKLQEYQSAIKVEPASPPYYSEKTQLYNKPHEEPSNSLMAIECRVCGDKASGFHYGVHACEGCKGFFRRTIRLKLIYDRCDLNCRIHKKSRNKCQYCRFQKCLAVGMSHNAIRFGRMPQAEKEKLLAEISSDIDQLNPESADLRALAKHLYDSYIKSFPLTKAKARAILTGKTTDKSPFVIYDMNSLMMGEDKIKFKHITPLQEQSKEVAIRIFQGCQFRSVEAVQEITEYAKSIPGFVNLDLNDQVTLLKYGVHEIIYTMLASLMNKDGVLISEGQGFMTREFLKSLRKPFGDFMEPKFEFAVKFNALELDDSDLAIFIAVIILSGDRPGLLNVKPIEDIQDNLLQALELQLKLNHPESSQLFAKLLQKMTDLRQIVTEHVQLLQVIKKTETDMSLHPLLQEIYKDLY
Method in brief: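 GeneBLAzer PPARg UAS-bla HEK293H cells carrying a UAS-driven beta-lactamase reporter were plated at 3000 cells/well, preincubated 5 h at 37C, then given compound for 17 h at 37C; LiveBLAzer B/G FRET substrate was read after 1 h at room temperature.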

[16] = qHTS assay to identify small molecule agonists of the endoplasmic reticulum stress response signaling pathway (AID 1159516; active means well fitted activation curve with a large enough effect in the signal ratio in the repeat runs, not every such curve was filed as active; inconclusive means weak or mixed curves, or effect the other way; the % refers to the signal ratio; further: on the % scale 0 is the no-effect control and ±100 the full control effect); conditions: ESRE-bla HeLa, ER stress beta-lactamase reporter, 5 h; activation: at 61 µM (top of the series) unless noted
Method in brief: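 CellSensor ESRE-bla HeLa cells, 1,500 per well, plated overnight, then exposed to compounds for 5 hr at 37 C. Beta-lactamase reporter read with LiveBLAzer B/G FRET substrate after 2 hr at room temperature, 405 nm excitation, 460 and 530 nm emission.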
Tags describe the fitted curve by direction and shape or compound fluorescence and quenching.

In the case of `C[N+](C)(C)CCOC(=O)C(O)(c1ccccc1)c1ccccc1`, the activation [1] is reported as inconclusive: -10.2%, the Potency [2] is reported as “inactive” and the Potency [3] is reported as inconclusive: 33.5 µM [cytotoxic, single point]. The Potency [4] was inconclusive: 33.5 µM [cytotoxic, single point], the Potency [5] was “inactive” and the Potency [6] was “inactive”.

In the case of `C=CCc1ccc2c(c1)OCO2`, the Potency [1] is reported as “inactive”, the Potency [3] is reported as inconclusive: 0.22 µM [cytotoxic, full curve, poor fit] and the Potency [5] is reported as inconclusive: 49.2 µM [activator, partial curve, poor fit] and inactive. For the same compound, the Potency [6] was inconclusive: 0.196 µM [cytotoxic, single point].

With `O=C=Nc1ccc(Cl)cc1` the Potency [1] was active: 43.3 µM, the Potency [7] was inconclusive: 61.6 µM [activator, single point] and the Potency [3] was inconclusive: 19.5 µM [cytotoxic, partial curve, poor fit]. For the same compound, the ratio activity, negative = inhibition [8] was inconclusive: -37.6%, the Potency [4] was inconclusive: 1.38 µM [cytotoxic, full curve, poor fit] and the activity change, negative = inhibition [5] was inconclusive: 18%. The Potency [9] was inconclusive: 69.2 µM [cytotoxic, single point], the Potency [10] was inconclusive: 0.0055 µM [cytotoxic, full curve, poor fit] and the Potency [6] was inconclusive: 54.9 µM [cytotoxic, single point].

With `Cc1cc(C)cc(OP(=O)(Oc2cc(C)cc(C)c2)Oc2cc(C)cc(C)c2)c1` the activation [1] was inconclusive: 20.1% [at 94.8 µM], the Potency [11] was inconclusive: 0.443 µM [cytotoxic, partial curve, poor fit] and the Potency [3] was inconclusive: 0.558 µM [cytotoxic, full curve, poor fit]. For the same compound, the activity change, negative = inhibition [12] was inconclusive: -32.1% [at 81.1 µM], the Potency [13] was “inactive” and the Potency [9] was inconclusive: 19.8 µM [cytotoxic, partial curve, poor fit]. For the same compound, the Potency [6] was inconclusive: 62.6 µM [cytotoxic, single point].

In the case of `C=CC(=O)OCCO`, the Potency [14] is reported as “inactive”, the Potency [1] is reported as inconclusive: 4.39 µM [rising, full curve] and inconclusive: 7.7 µM [rising, full curve] and the Potency [10] is reported as inconclusive: 0.49 µM [cytotoxic, single point]. For the same compound, the Potency [6] was inconclusive: 49.7 µM [rising, partial curve, poor fit] and inconclusive: 49 µM [rising, partial curve, poor fit].

With `Cc1cc(Cl)ccc1OCC(=O)O` the ratio activity, negative = inhibition ([15]; at 62.6 µM (top of the series)) was inactive: 3.21% and inactive: 23.9%, the ratio activity, negative = inhibition ([15]; ratio activity, negative = inhibition: at 62.6 µM (top of the series) unless noted) was inconclusive: 0.646% and the Potency [14] was inconclusive: 1.22 µM [rising, full curve, poor fit]. For the same compound, the activity change, negative = inhibition [5] was inconclusive: 1.9% and the Potency [16] was “inactive”.
